Test results: the supplement of paper PMC11417369
This is one part of the list.

Tested on: PF3D7_0420300 AP2 domain 1 (GST-tagged)
Experiment: gcPBM binding intensity (ln(normalized median fluorescence intensity)); higher = stronger DNA binding
Summary of the method: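 Each value is the highest Masliner-normalised natural-log median intensity across replicate spots of either orientation of a probe. The probes were primer-extended double-stranded 36-bp intergenic genomic sequences on an Agilent 4 × 180k array, alongside negative controls, exposed for 1 h to GST-tagged P. falciparum DNA-binding domains expressed in E. coli. Bound protein was picked up with Alexa488 anti-GST antibody and scanned at 488 nm.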

Point of comparison: “TATATGCATAATAACTGTACACAAATTGGGGTTGAT [XGTACX_site459]”, “gcPBM binding intensity (ln)” value 9.65. Against it:
- ATTGATTATTTTCTAGTGCATAAAATAATTTTTTTT — lower, 9.13
- ATATACATATTATAATGTACATATTTTAATAACCTT [XGTACX_site7617] — lower, 9.2
- AGTGTCATATAAAATTGTACTTTTTTTTTTTTCTTT [XGTACX_site5651] — lower, 9.4
- AAATGTTGAAAAATATGTACATATTATATATATTAT [XGTACX_site1165] — lower, 9.23
- TAAGAAAGACAAAAAAAATGAAAAGAAAAAAAATGA [CACACA_negctrl_site1469] — lower, 9.32
- AATATAAGCAAATACACACACACATATATATATATA [CACACA_site3805] — higher, 10
- ATTTAGAAAAAATATACACACAGCCTAAACATGCAT [CACACA_site4067] — lower, 9.64
- TATTTATTTGTTTAAGGTACAGAACAAATTTTTATT [XGTACX_site7414] — lower, 8.97
- AAATGTTCTTAAAAATGAATAATATATATATATATA [CACACA_negctrl_site796] — lower, 8.94
- CATAAATACATACATACACACATATATATATATATA [CACACA_site2106] — lower, 9.5
- ATATTTATTATTATATGTACGTAACATCTTTATAAA [XGTACX_site7016] — lower, 9.22
- ATTCTATTATAATATTCACACACTAACGTAAATCAT [CACACA_site2750] — lower, 9.55
- TAATGACTGAAAAATTGTACATATGTATATATGTAT [XGTACX_site2415] — lower, 9.18
- TATACATACATACATACACACACACCGATATATATA [CACACA_site7896] — higher, 10.1
- ATAATTTTCCATATTTGTACATATTTTTTTCCCTTG [XGTACX_site8146] — lower, 9.35
- AATATAAATAAAAACACACACAATGGTACAGATATA [CACACA_site5930] — higher, 10.1
- AATTTAAATTAGAATTGTACTAGAAAAGGAATATAT [XGTACX_site6162] — lower, 9.3
- AATTATATAATCTTATAACATAATATAATAACATTT [CACACA_negctrl_site187] — lower, 9.09
- ATAATGTTTCTTTCAACACACAAAAAATGAACACAT [CACACA_site1552] — lower, 9.47
- AAAAAAGAAAAAAGGACACACATAAATATACTCACG [CACACA_site2904] — higher, 9.71
- CATACATACGGACACACACACATATATATATATATA [CACACA_site5598] — higher, 9.97
- TATATAAGCGCATGCACACGCAAAGGTATATAAATA [CACACA_site622] — lower, 9.29
- AAAAAAAAAAAATAGACCTCCTAAGCAAAAGAAAAA [GTGCAC_negctrl_site634] — lower, 9.38
- TAAGTTTATTGAAATTGTACAAACATAAATGTAAAA [XGTACX_site162] — lower, 9.11
- TTATATTTTTTTTTTTCACACACATTTATATTGTAT [CACACA_site9025] — higher, 9.77
- TATACTAAGAAGTATTTACACACCAACAAGGCGAAA [CACACA_site8963] — lower, 9.42
- TTATTTTCATATAGGTGTACATAAAAATATTCTTAT [XGTACX_site8861] — lower, 9.09
- AAATTAAGTATATATTGTACACATAATATGATTGTA [XGTACX_site3083] — lower, 9.22
- ATGTTCATTATATGCACACATATATATAAATGTAAT [CACACA_site2908] — lower, 9.31
- TATCATAAAAAATATACACACAAAGGATATATATAT [CACACA_site1571] — lower, 9.6
- TTAATTAGAAATCATACACACATATAAATAAATATA [CACACA_site6225] — lower, 9.6
- TGTGCCTATAAATTAACACACAGAAATATATAGAGA [CACACA_site818] — lower, 9.34
- TTATTCTGACAGAATTGTACTAATGTCTTTAAAAAA [XGTACX_site1256] — lower, 8.72
- TATTTGTTTGTTCGGGTGCTTACATATATTCTTATA [GTGCAC_site9972] — the same, 9.65
- TGTTGTAAATTAAAGACATGCACGTGAGAAAATATA [TGCATGCA_site285] — lower, 9.51
- AATTATATACATAAGTGTACATAATATATAAACATA [XGTACX_site793] — lower, 9.12
- TTTTCAATTAATAATACACACATGTATTTATTATTA [CACACA_site5774] — lower, 9.38
- TTTTCTATGCTAAACACACTCATTGTTACAAGTTTT [CACACA_site5531] — lower, 9.28
- TATATATATTTTATATGTACGTATGGAACAATATGA [XGTACX_site8167] — lower, 9.23
- TTATTTATTTTTTATACACACAATTATCATTTTAAG [CACACA_site22] — lower, 9.45
- ATTATATATATGTGCACACAAAAGATATATATATAT [CACACA_site5205] — higher, 9.68
- AAATAATTTACTTAATGTACATATATATATATATAT [XGTACX_site8594] — lower, 9.34
- ATATTTATTTGTTAGTGTACATACATATATATATAT [XGTACX_site1347] — lower, 9.46
- TTTTAATTTATTTATGCACACATATATAATTACACA [CACACA_site8126] — lower, 9.4
- AAAAATAAACAATATATAGTTATATATATATATATA [TGCATGCA_negctrl_site82] — lower, 9.18
- GAGAAATGGGGACACACACACATATTATATATATAT [CACACA_site4943] — higher, 10
- AAGCACAAAAAATACACACACAAAAAATAAAAAAAG [CACACA_site1840] — higher, 10.1
- ATATAAATATATGTATGTACGCATGTATGTATCTAT [XGTACX_site3290] — lower, 9.35
- ATAATGAACAATATTATATATAAAATATAATTTATA [GTGCAC_negctrl_site564] — lower, 9.08
- ATGTATGTTTGTTATGCACACAAATGCATCTTATTT [CACACA_site8861] — lower, 9.62
- ATTATGTATACATAAACACACATATATATAAAAAAA [CACACA_site262] — lower, 9.51
- TTTGTTCTTTTAATGTGTACATATACACTTGTAATA [XGTACX_site2635] — lower, 9.23
- ATGTATGCAAAAATGGTGCATATTAAATGTATAACA [GTGCAC_site9722] — lower, 9.34
- AAAAAAAAAAGAAACACACACATTTGTCTATAATAT [CACACA_site7063] — higher, 9.83
- TGACCTTATGTGTTTTGAAGGGGAAAGGAAATGCGC [XGTACX_negctrl_site411] — lower, 9.07
- TATAAAAATAGGATTTGTACATATAAAAAAGGAAAA [XGTACX_site8678] — lower, 9.3
- TATAAATATATGTATGCACACATTTTTTTTGGAAAA [CACACA_site1070] — lower, 9.17
- CAGAAATAGAGATACACACACACATATATTTATGTA [CACACA_site3968] — higher, 10.2
- TAATATAAAAAAGGTACTACACGAAGGAATAAAAAT [XGTACX_site6872] — higher, 9.87
- ATAAAGAAATAAAGTTGTACATTATATATATATATA [XGTACX_site7729] — lower, 9.25
- TGTTTAAAAATAATTTGTACATATATTTTATTTCAT [XGTACX_site1272] — lower, 9.13
- AATAATTTTTTAAACACACACACATATATATATATA [CACACA_site95] — higher, 9.74
- AATACATACGGACACACACACACATATATATATATA [CACACA_site5884] — higher, 10.2
- TCTTTTGTTTAACCTACATGCAGAATATAAGTCTTC [TGCATGCA_site99] — lower, 9.12
- ATTCATTATTCACCTTGTACACAAATGATTATCGTA [XGTACX_site455] — lower, 9.35
- TTAACAAAATTTTTAACACACAAAAAAAAAAAAAAA [CACACA_site1828] — lower, 8.97
- ATGTAGACAACATATGAACACACAAAATATTTTTTT [CACACA_site8955] — lower, 9.62
- CCAAAATTTATAAATTGTACATATTTTTAAATTCTT [XGTACX_site833] — lower, 9.03
- ATAAAAGAATTAAATAATCAAAATGATTATTTTATA [CACACA_negctrl_site466] — lower, 8.8
- GATAAATAATAATAAGGTACACATAAAATATTCCTT [XGTACX_site2963] — lower, 9.3
- GGTATAATTCATATAACACACATTTCAATGTTAAAA [CACACA_site2172] — lower, 9.28
- TGTATTAATTTGTAATGTACACATATATGTATTATA [XGTACX_site4152] — lower, 9.23
- TAAGTAAACTTTCTATGTACATATTTTCAAATATTA [XGTACX_site6260] — lower, 9.11
- CTTATATATACATATACACACACACCCATATATATA [CACACA_site8705] — higher, 10.1
- TAACATAAATCCATACGTACCTATATATATATAATA [XGTACX_site2626] — lower, 9.21
- ATTTATATTAAAAGTGTGCACTTTTTTTTTTTTTTT — lower, 9.12
- TCATTCCATACTTTAACACACAAATATATTTAATCC [CACACA_site145] — lower, 9.54
- TTTTTTTTTTTGTTTTGTACATAAATTGCAACCAAT [XGTACX_site8949] — lower, 9.05
- ATATATATATATATATGTACATATTCACTTATATTT [XGTACX_site5324] — lower, 9.18
- TATATATATATAATTACACACAATGTTCTATATATA [CACACA_site3235] — lower, 9.51
- TATTTATTTAATTACACACGAACATATAACCATTTC [CACACA_site211] — lower, 9.55
- TTTTCTTTTAAACATATATATATATATATATATATA [XGTACX_negctrl_site559] — lower, 8.81
- TGTAGACTACATAGTAGTACATAATATATACATATA [XGTACX_site367] — lower, 9.1
- GTTGAAAAAAAAAATGCACACGCATACATATAATAT [CACACA_site8117] — lower, 9.46
- ATTTCTTTGCTTTTCAAACACACAAAAGTTATTATA [CACACA_site520] — lower, 9.41
- AAAAAAAAAAAAAAAACACACATATATATTATTGTA [CACACA_site3979] — lower, 9.26
- TTTTTTGTATTTTTCACACACTCTCTATCTCTCTCA [CACACA_site2095] — lower, 9.54
- GAATATTACATGTATTGTACAGGTAATGTTAAAAAT [XGTACX_site8274] — lower, 9.26
